# From PubChem BioAssay AID624296 (National Center for Advancing Translational Sciences (NCATS), 2012)
# Several values for one entry are separate records, joined by “and”; a condition that tells them apart may be missing. Equal entries are not always repeated. Out of some 350,000 compounds screened, about 9,900 (2.8%) were called active. The inconclusive results got no clear call from the source; some entries with a clear call stand among them for comparison. Calls follow the shape of the dose curve; as a rule, active = well fitted activation curve with a large enough effect; inconclusive = small, poorly fitted or top-dose-only effect; inactive = no such curve, though single readings can be large or run the other way. Potencies of inconclusive entries are doubtful fits and often do not repeat. Some structures have more than one record in an assay (separate samples or runs), and their calls can disagree.
# Test: A quantitative high throughput screen for small molecules that induce DNA re-replication in MCF 10a normal breast cells. Also: nearly all actives have a fitted effect of over 50% in size.
# Conditions: MCF 10A DNA re-replication, Hoechst nuclear intensity, 48 h; series mostly up to 46.1 µM
# Potency is read from the fitted curve at half-maximal effect; tags tell the direction and shape of the fitted curve.
row,SMILES,Potency
1,CCCN1CCN(CCCNC(=O)c2cc3c(s2)-c2c(C)cccc2OC3)CC1,"inconclusive: 29.1 µM [activator, single point]"
2,O=C1CCN(Cc2ccccc2)S(=O)(=O)c2c(F)cc(F)cc21,"inconclusive: 29.1 µM [activator, single point]"
3,CCCCN(CCCC)C(=O)c1nsnc1-c1ccccc1O,"inconclusive: 20.6 µM [activator, single point]"
4,CC12CCC(C/C1=N\N=C1\NC(=O)/C(=C\c3cccc(Br)c3)S1)C2(C)C (centres undefined),active: 18.4 µM
5,O=C(CCc1nc2ccccc2c(=O)[nH]1)NCc1ccco1,"inconclusive: 23.1 µM [activator, single point]"
6,CC(C)Cn1c(-c2ccccc2)nc2ccccc2c1=O,"inconclusive: 16.4 µM [activator, partial curve]"
7,Cc1ccc(S(=O)(=O)N2CCN(S(=O)(=O)c3ccccc3Br)C2=O)cc1,"inconclusive: 0.146 µM [activator, full curve, poor fit]"
8,CCC(=O)NC(=S)Nc1ccc2oc(-c3ccc(OC)cc3)nc2c1,inactive
9,CC(C)N1CCc2c(sc(NC(=O)CCS(=O)(=O)c3ccccc3)c2C(N)=O)C1,"inconclusive: 23.1 µM [activator, single point]"
10,C[C@@H]1CCC2[C@@H](C)[C@@H](O)O[C@@H]3O[C@@]4(C)CC[C@@H]1[C@@]23OO4 (some centres undefined),inactive
11,CCOC(=O)C1C(=O)C=C(c2cccs2)CC1c1ccccc1 (centres undefined),"inconclusive: 29.1 µM [activator, single point]"
12,Cc1cc(C)nc(Nc2n[nH]c(COc3ccc(Cl)cc3)n2)n1,"inconclusive: 29.1 µM [activator, single point]"
13,Nc1c(C(=O)NC2CCCC2)c2nc3ccccc3nc2n1N,"inconclusive: 25.1 µM [activator, single point]"
14,Cc1ccc(S(=O)(=O)CCC(=O)c2ccc(F)cc2)cc1,active: 4.61 µM
15,COc1ccc(C2CC(=O)c3cnc(NC(=O)c4ccccc4)nc3C2)c(OC)c1 (centres undefined),active: 20.6 µM
16,C=C(C)C1CC=C(C)/C(=N/NC(=O)c2ccccc2[N+](=O)[O-])C1 (centres undefined),"inconclusive: 11.6 µM [activator, partial curve, poor fit]"
17,Oc1ccccc1-c1nc(NC2CCCC2)c2ccccc2n1,"inconclusive: 20.6 µM [activator, single point]"
18,CCC(C)n1c(SCC(=O)Nc2cc(C(C)(C)C)nn2-c2ccccc2)nc2ccccc2c1=O (centres undefined),"inconclusive: 25.9 µM [activator, partial curve, poor fit]"
19,O=C(c1c(F)c(F)c(F)c(F)c1F)N(Cc1ccccc1)Cc1ccccc1,"inconclusive: 29.1 µM [activator, single point]"
20,COCCNc1nnc(SCC(=O)Nc2cc(C)on2)s1,"inconclusive: 2.31 µM [activator, partial curve, poor fit]"
21,COc1ccc(F)cc1CN1CCN(CC(=O)N2CCc3ccccc32)CC1,"inconclusive: 18.4 µM [activator, partial curve, poor fit]"
22,O=C(NC1CCCc2ccccc21)c1cncc(Br)c1 (centres undefined),"inconclusive: 16.4 µM [activator, partial curve, poor fit]"
23,Cc1ccc(-c2noc(CN(C(=O)c3cccs3)C(C)C)n2)cc1,"inconclusive: 23.1 µM [activator, single point]"

row,SMILES,Potency
1,CCN(CCCNC(=O)CCc1nc(-c2ccc(C)cc2)no1)c1cccc(C)c1,"inconclusive: 29.1 µM [activator, single point]"
2,CCOC(=O)c1cnc2c(ccc3ccccc32)c1NCCN(C)C,inactive
3,CCN1C(=O)/C(=C\N(C(C)=O)c2ccccc2)OC1=S,inactive
4,COCC(=O)n1nc(-c2ccc(Cl)cc2)nc1NCc1ccc(F)cc1,"inconclusive: 20.6 µM [activator, single point]"
5,CCSc1nc2c(cnn2-c2ccccc2)c(=O)n1N,inactive
6,CC(=O)NCC(=O)N1CCCC(C(=O)c2ccc(-c3ccccc3)c(F)c2)C1 (centres undefined),inactive
7,COc1ccc(-c2nc(N)nc(N)n2)c(O)c1,"inconclusive: 29.1 µM [activator, single point]"
8,CC(C)CC(=O)Nc1ccc(OCC(=O)O)cc1,"inconclusive: 6.51 µM [activator, single point]"
9,CN1CCN(C(c2ccc(Cl)cc2)c2cc(Cl)c3cccnc3c2O)CC1 (centres undefined),"inconclusive: 29.1 µM [activator, single point]"
10,Clc1ccc(CN=C2Nc3ccccc3CS2)cc1,"inconclusive: 20.6 µM [activator, single point]"
11,Oc1sc(C=Nc2ccc(F)cc2)c2ccccc12,"inconclusive: 25.9 µM [activator, partial curve, poor fit]"
12,O=[N+]([O-])c1c(NCCCO)cc(Sc2ccc(Cl)cc2)c2nonc12,active: 13 µM
13,CNC(=S)SCCOc1ccccc1,inactive
14,CCOC(=O)N1CCN(CC(O)COCc2cc(OC)c(OC)c(OC)c2)CC1 (centres undefined),"inconclusive: 25.9 µM [activator, partial curve, poor fit]"
15,Cc1csc(NC(=O)CSc2nc3[nH]ncc3c(=O)[nH]2)n1,inactive
16,CCc1c(C(=O)NN2C(=O)C3CCCCC3C2=O)csc1C (centres undefined),inactive
17,CCOc1ccc2nc(NC(=O)c3cc([N+](=O)[O-])ccc3N3CCOCC3)sc2c1,"inconclusive: 20.6 µM [activator, partial curve, poor fit]"
18,O=C(O)C1=CC2C=C(Cl)C=CC2OC1=O (centres undefined),inactive
19,COc1ccc(Cl)cc1S(=O)(=O)n1ccnc1C(C)C,"inconclusive: 1.16 µM [activator, full curve, poor fit]"
20,C=CCOC(=O)C1=C(C)NC(SC)=C(C#N)C1c1ccc(OCC)cc1 (centres undefined),"inconclusive: 18.4 µM [activator, single point] and inconclusive: 20.6 µM [activator, single point]"
21,S=C(NCc1ccccc1)NCc1ccccc1,"inconclusive: 2.06 µM [activator, partial curve, poor fit]"
22,CC(=O)NC(c1ccco1)c1cc(Cl)c2ccccc2c1O (centres undefined),"inconclusive: 29.1 µM [activator, single point]"
23,COc1ccc(-c2noc(CCC(=O)NC3CCCCCC3)n2)cc1,"inconclusive: 20.6 µM [activator, single point]"

row,SMILES,Potency
1,O=C(Nc1ccc(O)c2c(=O)cc(-c3cccc(Cl)c3)oc12)c1cccc(Cl)c1,inactive
2,O=C(O)C1OC(Oc2cc3oc(-c4ccccc4)cc(=O)c3c(O)c2O)C(O)C(O)C1O (centres undefined),"inconclusive: 18.4 µM [activator, single point]"
3,CC(=O)Nc1ccc(C(=O)N/N=C(\C)CC(=O)Nc2ccc(OCc3ccccc3)cc2)cc1,"inconclusive: 29.1 µM [activator, single point]"
4,Cn1c(SCc2cccc([N+](=O)[O-])c2)nc2c(c1=O)SCC2,inactive
5,COc1ccc(CCNC(=O)COC(=O)CNS(=O)(=O)c2ccc(SC)c([N+](=O)[O-])c2)cc1,"inconclusive: 29.1 µM [activator, single point]"
6,CCCNC(=O)c1nnsc1S(=O)(=O)c1ccc(Cl)cc1,active: 2.31 µM
7,Cc1cc(Br)ccc1SCC(=O)OCC(=O)Nc1ccc2[nH]c(=O)[nH]c2c1,inactive
8,CSC1=NC(C(Cl)(Cl)Cl)N=C(c2ccc(C)cc2)N1 (centres undefined),active: 1.84 µM
9,O=C(Nc1nc2ccccc2c(=O)[nH]1)c1ccccc1SCc1ccccc1,"inconclusive: 29.1 µM [activator, single point]"
10,COc1ccc(CCNC(=O)c2cc(-c3ccc(C)c(C)c3O)n[nH]2)cc1OC,inactive
11,COc1cc(/C=N/O)ccc1Oc1ccc([N+](=O)[O-])cc1[N+](=O)[O-],"inconclusive: 29.1 µM [activator, single point]"
12,CC1=C(C(=O)OC(C)(C)C)C(c2ccc(Br)cc2)NC(=O)N1CCCC(=O)O (centres undefined),"inconclusive: 29.1 µM [activator, single point]"
13,CC(C)CC1NC(=O)C(CCCN)NC(=O)C(C(C)C)NC(=O)C2CCCN2C(=O)C(Cc2ccccc2)NC(=O)C(CC(C)C)NC(=O)C(CCCN)NC(=O)C(C(C)C)NC(=O)C2CCCN2C(=O)C(Cc2ccccc2)NC1=O (centres undefined),"inconclusive: 0.188 µM [activator, full curve]"
14,CC(=O)Nc1ccc(OCC(O)CN2CCN(c3cc(Cl)ccc3C)CC2)cc1 (centres undefined),"inconclusive: 14.6 µM [activator, partial curve, poor fit]"
15,COc1ccc(N2CCN(C(=O)COC(=O)CCc3ccccc3OC)CC2)cc1,"inconclusive: 0.0046 µM [activator, full curve, poor fit]"
16,COc1cc([N+](=O)[O-])cc2cc(C(=O)N3CCN=C3c3ccccc3)c(=O)oc12,inactive
17,CC(C)CNC(=O)c1c(N)n(/N=C/c2ccccn2)c2nc3ccccc3nc12,active: 18.4 µM
18,Cc1onc(-c2ccccc2)c1-c1n[nH]c(=S)n1-c1ccccc1Cl,inactive
19,CSc1ccccc1NC(=O)c1ccc(Br)o1,"inconclusive: 23.1 µM [activator, single point]"
20,O=C(CCc1nc2ccccc2c(=O)[nH]1)Nc1ccc(F)cc1,inactive
21,CCOC(=O)c1[nH]c(C)c(C(=O)Nc2cccc(Cl)c2C)c1C,active: 8.2 µM
22,O=C(CCCN1CCC(O)(c2ccc(Cl)cc2)CC1)c1ccc(F)cc1,active: 20.6 µM
23,CC(=O)c1c(C)[nH]c(C(=O)NCc2cccc(Cl)c2)c1C,"inconclusive: 9.2 µM [activator, partial curve]"
